Results on 59 compounds are retold here after PMC4336329 (PLoS ONE, 2015).

Among all 310,000 compounds or so, about 2,200 (0.71%) showed an effect of 50% or more. The effect is printed as a negative number. The list shows a part of the results.

The target in this test is human ether-à-go-go-related gene (hERG) potassium channel (human, UniProt Q12809). In words: primary screen, population patch clamp on CHO cells stably expressing hERG.
Sequence of human ether-à-go-go-related gene (hERG) potassium channel (Q12809 whole entry, looked up): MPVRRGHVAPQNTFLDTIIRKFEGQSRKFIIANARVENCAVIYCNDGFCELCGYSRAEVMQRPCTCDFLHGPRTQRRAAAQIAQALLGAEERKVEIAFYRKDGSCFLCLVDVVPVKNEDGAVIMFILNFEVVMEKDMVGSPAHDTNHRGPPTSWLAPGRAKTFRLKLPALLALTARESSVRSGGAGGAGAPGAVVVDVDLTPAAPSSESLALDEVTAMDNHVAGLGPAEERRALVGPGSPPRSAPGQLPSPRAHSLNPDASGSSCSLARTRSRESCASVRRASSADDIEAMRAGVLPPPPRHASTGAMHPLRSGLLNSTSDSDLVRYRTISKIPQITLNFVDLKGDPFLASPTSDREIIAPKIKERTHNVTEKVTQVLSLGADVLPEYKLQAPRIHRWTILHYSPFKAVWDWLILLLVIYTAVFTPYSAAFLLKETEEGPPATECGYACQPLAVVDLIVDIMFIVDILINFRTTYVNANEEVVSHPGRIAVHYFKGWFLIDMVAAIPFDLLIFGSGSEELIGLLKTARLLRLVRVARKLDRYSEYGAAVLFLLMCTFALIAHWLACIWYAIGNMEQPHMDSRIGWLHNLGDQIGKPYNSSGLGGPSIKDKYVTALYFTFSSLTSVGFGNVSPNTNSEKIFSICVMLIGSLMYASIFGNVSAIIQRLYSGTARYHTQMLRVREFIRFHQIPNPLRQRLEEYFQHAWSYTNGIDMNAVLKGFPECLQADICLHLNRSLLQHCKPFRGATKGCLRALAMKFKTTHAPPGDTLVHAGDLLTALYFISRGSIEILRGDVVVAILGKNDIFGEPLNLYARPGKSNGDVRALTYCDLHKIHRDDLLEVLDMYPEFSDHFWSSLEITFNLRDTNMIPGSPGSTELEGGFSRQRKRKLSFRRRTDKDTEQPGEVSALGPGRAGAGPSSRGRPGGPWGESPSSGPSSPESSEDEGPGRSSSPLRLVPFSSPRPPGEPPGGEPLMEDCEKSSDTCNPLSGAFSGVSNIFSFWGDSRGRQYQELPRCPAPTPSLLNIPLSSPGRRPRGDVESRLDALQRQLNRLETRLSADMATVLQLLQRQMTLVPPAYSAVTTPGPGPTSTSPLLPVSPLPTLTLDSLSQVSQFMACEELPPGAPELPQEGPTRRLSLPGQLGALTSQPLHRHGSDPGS
Regarding `COc1ccc(CCNC(=S)N2CCN(S(=O)(=O)c3ccc(Cl)cc3)CC2)cc1`, the “hERG current change (%, negative = inhibition) at 1uM” value is given as 14.3%.

Regarding `C=CCn1c(SCC(=O)NCc2ccc3c(c2)OCO3)nnc1C1COc2ccccc2O1` (centres unmarked), the “hERG current change (%, negative = inhibition) at 1uM” value is listed as 8.53%.

Consider `CC(C)c1ccc(NC2CCCN(C(=O)c3cnn(C(C)C)c3)C2)cc1` (centres unmarked), for which the “hERG current change (%, negative = inhibition) at 1uM” value was 3.48%.

Regarding `COc1ccc(CC(=O)Nc2ccc(-c3nnc(-c4ccccc4)o3)cc2)cc1`, the “hERG current change (%, negative = inhibition) at 1uM” value is on record as -5.58%.

As for `C#CCOc1ccc(Br)cc1C(c1c(C)[nH][nH]c1=O)c1c(C)[nH][nH]c1=O`, the “hERG current change (%, negative = inhibition) at 1uM” value worked out at 11.6%.

As to `Cc1ccc(C)c2[nH]c(=O)c(CCNC(=O)CC(C)(C)C)cc12`, the “hERG current change (%, negative = inhibition) at 1uM” value amounted to 13%.

Take `Cc1nc2c(s1)sc1ccccc12`: the “hERG current change (%, negative = inhibition) at 1uM” value came out at 6.36%.

With `CC(C)CCN1C(=O)c2ccc(C(=O)OCC(=O)N(C)C3CCS(=O)(=O)C3)cc2C1=O` (centres unmarked), the “hERG current change (%, negative = inhibition) at 1uM” value was determined as 6.71%.

Take `Cc1ccc(Cn2cc(C=O)c3ccccc32)cc1`: the “hERG current change (%, negative = inhibition) at 1uM” value came to 9.93%.

In the case of `C/C(=N\NC(=O)c1cc(C(C)C)[nH]n1)c1ccncc1`, the “hERG current change (%, negative = inhibition) at 1uM” value is listed as 14.6%.

Consider `Cc1onc(-c2c(F)cccc2Cl)c1C(=O)NC1CC1`, for which the “hERG current change (%, negative = inhibition) at 1uM” value was -0.826%.

`O=C(N/N=C/c1cnc2ccccc2n1)c1cccc(F)c1`: the “hERG current change (%, negative = inhibition) at 1uM” value worked out at 2.3%.

On to `Cc1ccc(-c2csc(NC(=O)c3ccno3)n2)cc1`, for which the “hERG current change (%, negative = inhibition) at 1uM” value is 25%.

`O=C(NCc1n[nH]c(=S)n1-c1ccc(Br)cc1)c1ccc(S(=O)(=O)N2CCCCC2)cc1`: the “hERG current change (%, negative = inhibition) at 1uM” value is 14.1%.

With `Clc1ncccc1OCc1ccccc1`, the “hERG current change (%, negative = inhibition) at 1uM” value worked out at 4.98%.

Consider `O=S(=O)(NCc1cccs1)c1cccc2cccnc12`, for which the “hERG current change (%, negative = inhibition) at 1uM” value is on record as -9.96%.

With `O=C(O)CN1C(=O)/C(=C\c2cc(Br)ccc2OCc2ccc([N+](=O)[O-])cc2)SC1=S`, the “hERG current change (%, negative = inhibition) at 1uM” value is 11%.

As for `CCc1ccc(S(=O)(=O)c2cn(C)c3cc(OC)c(OC)cc3c2=O)cc1`, the “hERG current change (%, negative = inhibition) at 1uM” value stood at 4.22%.

Consider `CCn1nc(C(=O)OCC(=O)N(CC(C)C)c2c(N)n(Cc3ccccc3)c(=O)[nH]c2=O)c2ccccc2c1=O`, for which the “hERG current change (%, negative = inhibition) at 1uM” value was found to be 14.2%.

With `CC(C)COC(=O)N1CCN(S(=O)(=O)c2ccc3c(c2)CCC3)CC1`, the “hERG current change (%, negative = inhibition) at 1uM” value is listed as 13.3%.

For the compound `Cc1nnc2sc(SCc3ccccc3)nn2c1=O`, the “hERG current change (%, negative = inhibition) at 1uM” value amounted to 16.6%.

Turning to `O=C(NCCC1=CCCCC1)C1CCC(CNc2nc(=S)[nH]c3ccccc23)CC1` (centres unmarked), the “hERG current change (%, negative = inhibition) at 1uM” value was 11.9%.

As for `O=C(Nc1sc2c(c1C(=O)O)CCCC2)c1ccccc1Cl`, the “hERG current change (%, negative = inhibition) at 1uM” value was 9.19%.

Turning to `COc1ccc(CC(=O)Nc2ccc(-c3noc(-c4cccc(OC)c4)n3)cc2)cc1`, the “hERG current change (%, negative = inhibition) at 1uM” value is 0.154%.

Turning to `N#CNC(=Nc1cccc(F)c1)SCc1ccccc1F`, the “hERG current change (%, negative = inhibition) at 1uM” value is 5.48%.

Turning to `O=C(O)CSc1nc(-c2cccs2)cc(C(F)(F)F)n1`, the “hERG current change (%, negative = inhibition) at 1uM” value turned out to be 16.9%.

Consider `COc1c(N2CCN[C@H](C)C2)c(F)cc2c(=O)c(C(=O)O)cn(C3CC3)c12`, for which the “hERG current change (%, negative = inhibition) at 1uM” value was 13.5%.

As to `c1ccc(CNCc2ccc3c(c2)OCO3)nc1`, the “hERG current change (%, negative = inhibition) at 1uM” value came out at 11%.

As to `O=C(NCCOc1ccc(Cl)cc1)c1ccc2ccccc2n1`, the “hERG current change (%, negative = inhibition) at 1uM” value was 7.95%.

On to `CCc1ccc(-n2cnc3cc(C(=O)NCC(OC)OC)ccc32)cc1`, for which the “hERG current change (%, negative = inhibition) at 1uM” value is -2.54%.

Turning to `COn1c(=O)c(-c2ccccc2)[n+]([O-])c2ccccc21`, the “hERG current change (%, negative = inhibition) at 1uM” value was found to be 11%.

With `CCOC(=O)NNC(=O)c1ccc(Cl)cc1`, the “hERG current change (%, negative = inhibition) at 1uM” value worked out at 1.99%.

For the compound `Fc1ccc(/C=N/Nc2nc(-c3cccnc3)nc3ccccc23)cc1`, the “hERG current change (%, negative = inhibition) at 1uM” value was -0.464%.

`COC(=O)c1sccc1-n1cccc1C(=O)N1CCOCC1`: the “hERG current change (%, negative = inhibition) at 1uM” value is -11.6%.

`COC(=O)c1c(N)c(C#N)c(C)n1-c1ccccc1`: the “hERG current change (%, negative = inhibition) at 1uM” value is reported as 10.9%.

`Cc1cc(C)c(NC(=O)C2CCCN2CCC(C)C)c(C)c1` (centres unmarked): the “hERG current change (%, negative = inhibition) at 1uM” value was found to be 2.06%.

On to `O=C(NN1c2ccccc2CCc2ccccc21)c1ccccc1Br`, for which the “hERG current change (%, negative = inhibition) at 1uM” value is on record as 16.7%.

On to `CCCCC(=O)Nc1ccc(NC(=S)NC(=O)CC)cc1OC`, for which the “hERG current change (%, negative = inhibition) at 1uM” value is reported as 15.8%.

Turning to `CCOC(=O)CC(=O)CSc1nc(-c2ccccc2)cc(-c2ccccc2)c1C#N`, the “hERG current change (%, negative = inhibition) at 1uM” value is given as 10.2%.

On to `CCOC(=O)c1sc(NC(=O)C2CCC2)cc1C`, for which the “hERG current change (%, negative = inhibition) at 1uM” value is 10.3%.

For the compound `Cc1ccc2nc(SCc3ccc([N+](=O)[O-])cc3)[nH]c2c1`, the “hERG current change (%, negative = inhibition) at 1uM” value was -37.3%.

For `Cc1ccc(NC(=O)C2CCN(S(=O)(=O)c3ccc4c(c3)CC(C)N4C(=O)C3CCC3)CC2)nc1` (centres unmarked), the “hERG current change (%, negative = inhibition) at 1uM” value is given as 15.3%.

In the case of `Cc1[nH]c2ccccc2c1CCNC(=O)CCC(=O)c1ccccc1`, the “hERG current change (%, negative = inhibition) at 1uM” value amounted to 1.75%.

For `CCC(=O)n1nc(-c2ccco2)nc1N`, the “hERG current change (%, negative = inhibition) at 1uM” value was 14.5%.

Take `CC(=O)c1ccc2c3c(ccc(O)c13)CC2`: the “hERG current change (%, negative = inhibition) at 1uM” value came to 11.5%.

In the case of `CCn1c(C)cc(/C=C2\SC(=O)N(CC(=O)Nc3ccc(C)c(C)c3)C2=O)c1C`, the “hERG current change (%, negative = inhibition) at 1uM” value is on record as -7.72%.

As for `Cc1cccc(N2CN=c3s/c(=C\c4ccccn4)c(=O)n3C2)c1`, the “hERG current change (%, negative = inhibition) at 1uM” value was 12%.

In the case of `Cn1nnc2cc(C(=O)NCCC3=CCCCC3)ccc21`, the “hERG current change (%, negative = inhibition) at 1uM” value came to 2.72%.

For the compound `CCCCOC(=O)c1ccc(-c2ccc(/C=N/NC(=S)NCC)o2)cc1`, the “hERG current change (%, negative = inhibition) at 1uM” value is reported as 10.6%.

Take `Cc1ccc(NC(=O)C(c2ccccc2)N2CCN(C(=O)c3ccco3)CC2)cc1` (centres unmarked): the “hERG current change (%, negative = inhibition) at 1uM” value was determined as 4.12%.

As for `Cc1cccc(NS(=O)(=O)c2cccc3nonc23)c1`, the “hERG current change (%, negative = inhibition) at 1uM” value came to 12.6%.

For `CN(c1ccccc1)c1cc(Br)nc(Br)c1`, the “hERG current change (%, negative = inhibition) at 1uM” value came to 6.4%.

For `COc1cc(OC)cc(-c2cc3ncccc3cn2)c1`, the “hERG current change (%, negative = inhibition) at 1uM” value was found to be 1.45%.

With `COC(=O)c1cc2cc(Cl)ccc2nc1SC`, the “hERG current change (%, negative = inhibition) at 1uM” value was 12.9%.

As to `CC(=O)Nc1ccc(NC(=O)CSc2nnc3ccc(-c4cccnc4)nn23)cc1`, the “hERG current change (%, negative = inhibition) at 1uM” value is 20.3%.

As to `CCOP(=O)(c1ccc(N(C)C)cc1)C(O)c1cccnc1` (centres unmarked), the “hERG current change (%, negative = inhibition) at 1uM” value was -2.34%.

For the compound `CC12CCC(C(=O)NCc3ccc(F)cc3)(OC1=O)C2(C)C` (centres unmarked), the “hERG current change (%, negative = inhibition) at 1uM” value was determined as 16.2%.

For `CC(=O)Nc1ccccc1C(=O)OCC(=O)c1ccccc1Cl`, the “hERG current change (%, negative = inhibition) at 1uM” value is -0.459%.

In the case of `Cc1nn(C)c(C(=O)N2CCc3ccccc32)c1Cl`, the “hERG current change (%, negative = inhibition) at 1uM” value is 0.757%.
